47 sequences from PMC5892938 can be followed below.

Some of the results follow. At the low end of the ranking the order means little.

For the experiment, the target named is GST-SBP-SLBP (stem-loop binding protein) (UniProt Q14493). In words: targeted RNA Bind-n-Seq.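 Note: DESeq read counts versus GST-SBP nonspecific binding control pulldown.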 Conditions: RBNS binding buffer: 25 mM Tris pH 7.5, 150 mM KCl, 3 mM MgCl2, 0.1% Tween, 0.5 mg/mL BSA, 1 mM DTT; 27 nM protein, 750 pM RNA pool; temperature not stated; high values mean tight binding.
Turning to “GGUCACGUCUCAAUCAACUCUUCCCCCAGGGAAAACCCUGGUAUUUUCAACAGCUCGCAGUCAAG”, the binding signal (log2 fold change) is -0.0867. The figure for “GGUCACGUCUCAAUCAACUCUUUCCCAGGAGUUUCCUCCUGUUAUCUCAACAGCUCGCAGUCAAG” is 0.242; for “GGUCACGUCUCAAUCAACUCAUUCCCCAGGGAAAUCCCUGGCUAAUUCAACAGCUCGCAGUCAAG” it is -0.101.

As to “GGUCACGUCUCAAUCAACUCAGUCUCAGGAGUUUCCUCCUGUUAAUUCAACAGCUCGCAGUCAAG”, the binding signal (log2 fold change) came out at 0.00689. The figure for “GGUCACGUCUCAAUCAACUCAUUCUCAGGAGUUUACUCCUGUUUACUCAACAGCUCGCAGUCAAG” is -0.0969; for “GGUCACGUCUCAAUCAACUCUAUCCCCAGGGAAAGCCCUGGUUUACUCAACAGCUCGCAGUCAAG” it is 0.263. The value for “GGUCACGUCUCAAUCAACUCCUUAGAGGGGGGGAAAACCCCUUUGCCCUCAUUCUCAACAGCUCGCAGUCAAG” was -0.468; that for “GGUCACGUCUCAAUCAACUCUUUUUCCAGGGAAAGCCCUGGUAAUUUCAACAGCUCGCAGUCAAG” was 0.059; that for “GGUCACGUCUCAAUCAACUCAGUCUCCAGGGAAAUCCCUGGUUUAUUCAACAGCUCGCAGUCAAG” was -0.156.

As for “GGUCACGUCUCAAUCAACUCUUCCGCAGGAGUUUCCUCCUGGUAAUUCAACAGCUCGCAGUCAAG”, the binding signal (log2 fold change) stood at 0.0971.

On to “GGUCACGUCUCAAUCAACUCUUCUUCAGGAGUUUACUCCUGUAAUCUCAACAGCUCGCAGUCAAG”, for which the binding signal (log2 fold change) amounted to 0.0621.

“GGUCACGUCUCAAUCAACUCUAUAGAGGGGGGGAAAACCCCUUUACCCUCCCAAUCAACAGCUCGCAGUCAAG”: the binding signal (log2 fold change) stood at 0.213. “GGUCACGUCUCAAUCAACUCUAUUCCCAGGGAAAUCCCUGGCUUUUUCAACAGCUCGCAGUCAAG”: the binding signal (log2 fold change) is 0.13. The value for “GGUCACGUCUCAAUCAACUCUAAAGAGGGGGGGAAAACCCCUUUGCCCUCCACAUCAACAGCUCGCAGUCAAG” was 0.069; that for “GGUCACGUCUCAAUCAACUCAGUCUCCAGGGAAACCCCUGGUUAAUUCAACAGCUCGCAGUCAAG” was -0.028; that for “GGUCACGUCUCAAUCAACUCUCUAGAGGGGGGGAAAACCCCUUUACCCUCACAUUCAACAGCUCGCAGUCAAG” was -0.0215. The value for “GGUCACGUCUCAAUCAACUCUUCUCCCAGGGAAAGCCCUGGUUAAUUCAACAGCUCGCAGUCAAG” was 0.132; that for “GGUCACGUCUCAAUCAACUCACCCGAGGGGGGGAAAACCCCUUUACCCUCACAAUCAACAGCUCGCAGUCAAG” was -0.329. On to “GGUCACGUCUCAAUCAACUCCAACGAGGGGGGGAAAACCCCUUUACCCUCAUUAUCAACAGCUCGCAGUCAAG”, for which the binding signal (log2 fold change) was found to be 0.197. The figure for “GGUCACGUCUCAAUCAACUCUAACGAGGGGGGGAAAACCCCUUUGCCCUCAAUCUCAACAGCUCGCAGUCAAG” is 0.259; for “GGUCACGUCUCAAUCAACUCAUUCUCCAGGGAAACCCCUGGCUUACUCAACAGCUCGCAGUCAAG” it is 0.0472; for “GGUCACGUCUCAAUCAACUCAUCUUCCAGGGAAACCCCUGGUAUUUUCAACAGCUCGCAGUCAAG” it is 0.121. The value for “GGUCACGUCUCAAUCAACUCUUCGUCAGGAGUUUACUCCUGUUUUCUCAACAGCUCGCAGUCAAG” was 0.0768. The value for “GGUCACGUCUCAAUCAACUCUAUUUCAGGAGUUUCCUCCUGCUAUCUCAACAGCUCGCAGUCAAG” was 0.101; that for “GGUCACGUCUCAAUCAACUCUUUAGAGGGGGGGAAAACCCCUUUACCCUCACAAUCAACAGCUCGCAGUCAAG” was 0.17. With “GGUCACGUCUCAAUCAACUCAAUCCCCAGGGAAACCCCUGGCAAUCUCAACAGCUCGCAGUCAAG”, the binding signal (log2 fold change) is -0.124. The figure for “GGUCACGUCUCAAUCAACUCUUUCCCAGGAGUUUCCUCCUGUUUUCUCAACAGCUCGCAGUCAAG” is 0.0978; for “GGUCACGUCUCAAUCAACUCAAACGAGGGGGGGAAAACCCCUUUACCCUCACCUUCAACAGCUCGCAGUCAAG” it is 0.0402; for “GGUCACGUCUCAAUCAACUCAUUCCCCAGGGAAACCCCUGGUUUUCUCAACAGCUCGCAGUCAAG” it is 0.147. The value for “GGUCACGUCUCAAUCAACUCAAAAGAGGGGGGGAAAACCCCUUUGCCCUCAAUCUCAACAGCUCGCAGUCAAG” was 0.208. Turning to “GGUCACGUCUCAAUCAACUCAAUUUCAGGAGUUUGCUCCUGUAUUUUCAACAGCUCGCAGUCAAG”, the binding signal (log2 fold change) was -0.135. The value for “GGUCACGUCUCAAUCAACUCUUCGUCAGGAGUUUACUCCUGUAAUCUCAACAGCUCGCAGUCAAG” was 0.0942; that for “GGUCACGUCUCAAUCAACUCCAACGAGGGGGGGAAAACCCCUUUGCCCUCAAAAUCAACAGCUCGCAGUCAAG” was 0.0864. As to “GGUCACGUCUCAAUCAACUCUUCCUCCAGGGAAACCCCUGGCUUUUUCAACAGCUCGCAGUCAAG”, the binding signal (log2 fold change) was 0.107. The figure for “GGUCACGUCUCAAUCAACUCAAUCUCAGGAGUUUACUCCUGCUAUGUCAACAGCUCGCAGUCAAG” is 0.146; for “GGUCACGUCUCAAUCAACUCAAUUCCAGGAGUUUGCUCCUGCUUUCUCAACAGCUCGCAGUCAAG” it is 0.155. The value for “GGUCACGUCUCAAUCAACUCUACUCCAGGAGUUUACUCCUGCUAUUUCAACAGCUCGCAGUCAAG” was -0.0258; that for “GGUCACGUCUCAAUCAACUCAUUCUCAGGAGUUUCCUCCUGUAAACUCAACAGCUCGCAGUCAAG” was 0.266. The figure for “GGUCACGUCUCAAUCAACUCAUCUCCAGGAGUUUACUCCUGUUUAGUCAACAGCUCGCAGUCAAG” is 0.0103; for “GGUCACGUCUCAAUCAACUCUACUCCCAGGGAAAUCCCUGGCAUACUCAACAGCUCGCAGUCAAG” it is 0.0256. On to “GGUCACGUCUCAAUCAACUCAAUUCCAGGAGUUUUCUCCUGUAUUCUCAACAGCUCGCAGUCAAG”, for which the binding signal (log2 fold change) is -0.168. The figure for “GGUCACGUCUCAAUCAACUCAAUCCCCAGGGAAAGCCCUGGUUAUCUCAACAGCUCGCAGUCAAG” is -0.278; for “GGUCACGUCUCAAUCAACUCAAUCUCCAGGGAAAGCCCUGGCUAUUUCAACAGCUCGCAGUCAAG” it is 0.186; for “GGUCACGUCUCAAUCAACUCUUUCUCCAGGGAAAGCCCUGGUAUAUUCAACAGCUCGCAGUCAAG” it is -0.039. For “GGUCACGUCUCAAUCAACUCAACUUCCAGGGAAAACCCUGGUAAAUUCAACAGCUCGCAGUCAAG”, the binding signal (log2 fold change) was -0.212.

On to “GGUCACGUCUCAAUCAACUCUUCUUCAGGAGUUUACUCCUGCUAAUUCAACAGCUCGCAGUCAAG”, for which the binding signal (log2 fold change) worked out at 0.0717. The value for “GGUCACGUCUCAAUCAACUCAUUUUCAGGAGUUUUCUCCUGUAAUCUCAACAGCUCGCAGUCAAG” was -0.0689.
